Source: PubChem BioAssay AID504339 (National Center for Advancing Translational Sciences (NCATS), 2011)
Out of some 390,000 compounds screened, about 17,000 (4.4%) were called active. The inconclusive results got no clear call from the source; some entries with a clear call stand among them for comparison. The call rests on the fitted dose curve; in most records, active means well fitted inhibition curve with a large enough effect; inconclusive means small, poorly fitted or top-dose-only effect; inactive means no such curve, though single readings can be large or run the other way. Potencies of inconclusive entries are doubtful fits and often do not repeat.

Biological target: Lysine-specific demethylase 4A (Homo sapiens) (UniProt O75164)
UniProt O75164, sequence (O75164 whole entry, looked up, the tested form may be a part): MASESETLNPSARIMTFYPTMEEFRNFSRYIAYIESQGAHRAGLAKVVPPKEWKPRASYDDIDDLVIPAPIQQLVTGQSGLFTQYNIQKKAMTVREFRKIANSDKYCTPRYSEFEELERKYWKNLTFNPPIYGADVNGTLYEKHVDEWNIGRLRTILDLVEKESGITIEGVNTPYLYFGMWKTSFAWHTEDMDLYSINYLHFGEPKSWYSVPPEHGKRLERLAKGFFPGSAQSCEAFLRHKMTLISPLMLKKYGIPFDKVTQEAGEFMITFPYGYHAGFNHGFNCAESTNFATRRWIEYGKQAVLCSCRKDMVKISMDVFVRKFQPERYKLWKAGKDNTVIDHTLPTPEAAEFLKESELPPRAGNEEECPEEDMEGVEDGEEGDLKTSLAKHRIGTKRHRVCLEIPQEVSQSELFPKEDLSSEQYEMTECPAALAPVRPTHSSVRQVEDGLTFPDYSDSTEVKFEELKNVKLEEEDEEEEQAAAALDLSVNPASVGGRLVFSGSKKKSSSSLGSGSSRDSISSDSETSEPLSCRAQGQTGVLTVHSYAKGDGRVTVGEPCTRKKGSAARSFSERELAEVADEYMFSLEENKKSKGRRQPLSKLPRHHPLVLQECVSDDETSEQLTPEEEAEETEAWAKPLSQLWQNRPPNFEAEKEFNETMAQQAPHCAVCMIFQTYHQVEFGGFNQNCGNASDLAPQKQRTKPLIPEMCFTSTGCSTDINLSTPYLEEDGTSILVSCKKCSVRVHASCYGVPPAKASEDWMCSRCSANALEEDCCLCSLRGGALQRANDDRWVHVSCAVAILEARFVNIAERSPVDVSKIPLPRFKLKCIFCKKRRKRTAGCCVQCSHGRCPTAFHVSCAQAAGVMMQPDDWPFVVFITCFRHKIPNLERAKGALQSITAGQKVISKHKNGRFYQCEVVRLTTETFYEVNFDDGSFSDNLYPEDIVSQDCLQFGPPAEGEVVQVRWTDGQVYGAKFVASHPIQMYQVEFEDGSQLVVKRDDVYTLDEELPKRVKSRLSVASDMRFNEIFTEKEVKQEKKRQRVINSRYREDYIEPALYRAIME
Test: qHTS Assay for Inhibitors of JMJD2A-Tudor Domain; further: nearly all actives have a fitted effect of over 50% in size
Conditions: AlphaScreen JMJD2A-Tudor / H3K4me3 peptide binding; activity change, negative = inhibition: at 114 µM (top of the series)
On the % scale 0 is the no-effect control and ±100 the full control effect; potency means the concentration at half of the fitted maximal effect; tags describe the fitted curve by direction and shape.

Row | Structure (SMILES) | Potency | activity change, negative = inhibition
1 | C[C@@H]1CN([C@H](C)CO)C(=O)c2cc(NC(=O)Cc3ccccc3)ccc2O[C@H]1CN(C)Cc1ccc(Oc2ccccc2)cc1 | inconclusive: 22.4 µM [inhibitor, full curve] | 
2 | COCCCN1C2=C(C(=O)CC(C)(C)C2)C(c2ccc(OC)c(OC)c2)C2=C1CC(C)(C)CC2=O |  | inactive: -11.3%
3 | COc1cc(N)c(C(O)c2nccc3cc(OC)c(OC)cc23)cc1OC (centres undefined) |  | inactive: -35.4%
4 | CC(=O)NCc1ccc(S(=O)(=O)N2CCN(c3ccccn3)CC2)cc1 |  | inactive: -6.16%
5 | COc1cc(/C=C/C(=O)c2ccc3c(c2)OCO3)cc(Cl)c1O | inconclusive: 56.2 µM [inhibitor, partial curve] | 
6 | CCC(=O)Nc1cc(-c2nc3ncccc3o2)ccc1Cl |  | inactive: -18.8%
7 | CCN(CC)CCn1c(=S)[nH]c2ncccc2c1=O | inconclusive: 39.8 µM [inhibitor, partial curve] | 
8 | Cn1cc2ccc(-c3ccc4ncnc(NCc5cccs5)c4c3)cc2n1 | inconclusive: 3.98 µM [inhibitor, full curve, poor fit] | 
9 | Cc1cc(C)cc(OCC(=O)NCC2(N(C)C)CCCCC2)c1 |  | inactive: -6.95%
10 | CCOC(=O)C1=C(CS(=O)(=O)c2ccc(F)cc2)NC(=O)NC1c1ccc(OCC)c(OC)c1 (centres undefined) |  | inactive: -18.5%
11 | CC(C)CCNC(=O)[C@@H](c1ccccc1)N1Cc2ccccc2C1=O |  | inactive: -10.8%
12 | CCOC(=O)C(C(=O)Nc1ccccn1)C1CCCCC1 (centres undefined) | active: 89.1 µM | 
13 | COc1ccc(OC)c(-c2nc(C(=O)NCCCN3CCOCC3)cc3c2[nH]c2ccccc23)c1 | inconclusive: 50.1 µM [inhibitor, partial curve] | 
14 | CCN(CC)CCn1c2c(c(SCC(=O)Nc3cccc4ccccc34)nc1=O)CCC2 |  | inactive: -12.2%
15 | CCOC(=O)N1CCN(C(=O)CCCn2c(=S)[nH]c3ccccc3c2=O)CC1 | inconclusive: 79.4 µM [inhibitor, single point] | 
16 | Cc1ccc(C)c(NC(=O)CN(CCc2ccccc2)S(=O)(=O)c2ccccc2)c1 |  | inactive: 8.82%
17 | CCN(CC)C(=O)[C@H]1CC(CC(=O)NC/C=C(\C)CCC=C(C)C)C(=O)N2CCc3c([nH]c4ccc(OC)cc34)[C@]12C (some centres undefined) | active: 50.1 µM | 
18 | Cc1c(C(=O)N/N=C/c2ccc(-c3ccccc3[N+](=O)[O-])o2)sc(N)c1C#N | inconclusive: 56.2 µM [inhibitor, partial curve] | 
19 | Cc1ccc(/C=C2\SC(=S)N(CCCC(=O)Nc3ccccn3)C2=O)cc1 | inconclusive: 3.16 µM [inhibitor, partial curve] | 
20 | CC(C)(C)NC(=O)C(=O)NNC(=O)COc1ccccc1 | inconclusive: 56.2 µM [inhibitor, partial curve] | 
21 | Cc1c(C)n(Cc2ccccc2)c2ccc(C(=O)NCc3ccco3)cc12 | inconclusive: 22.4 µM [inhibitor, full curve] | 
22 | O=C(CCc1nc2ccccc2c(=O)[nH]1)OCC(=O)N1CCc2ccccc21 |  | inactive: -1.38%
23 | C=CCn1c(COc2ccccc2-c2ccccc2)nnc1SCC(=O)NC(=O)NCc1ccco1 | inconclusive: 25.1 µM [inhibitor, full curve, poor fit] | 

Row | Structure (SMILES) | Potency | activity change, negative = inhibition
24 | COc1ccc(OC)c(-n2c(=S)[nH]c3cc(C(=O)N4CCCCC4)ccc3c2=O)c1 | inconclusive: 28.2 µM [inhibitor, single point] | 
25 | C=CCOc1ccc(/C=C2\SC(=S)N(C(C(=O)O)c3ccccc3)C2=O)cc1 (centres undefined) | inconclusive: 22.4 µM [inhibitor, full curve] | 
26 | Cc1c(C(=O)Nc2nonc2-c2ccc(F)cc2)oc2ccc(F)cc12 | inconclusive: 39.8 µM [inhibitor, single point] | 
27 | Cc1c(-c2nsc(NC(=O)c3cccs3)n2)nnn1-c1ccc(Br)cc1 |  | inactive: -8.44%
28 | CCc1ccc(OCCn2ccnc2)cc1 | active: 28.2 µM | 
29 | O=C(Nc1ccc(-c2cccc(F)c2)cc1)C1CCCN(Cc2ccccn2)C1 (centres undefined) | inconclusive: 22.4 µM [inhibitor, partial curve] | 
30 | Cc1ccc(C(=O)NCC(c2cccnc2)N2CCc3ccccc32)cc1C (centres undefined) | inconclusive: 56.2 µM [inhibitor, partial curve] | 
31 | Fc1ccc(-n2ncc3c(SCc4cccnc4)ncnc32)cc1 |  | inactive: -13.1%
32 | CNC(=S)NNc1nc(-c2ccccc2)c2cc(Cl)ccc2n1 | inconclusive: 56.2 µM [inhibitor, partial curve] | 
33 | O=C(O)c1cc(-c2cccc([N+](=O)[O-])c2)n[nH]1 | inconclusive: 39.8 µM [inhibitor, partial curve] | 
34 | CCCC(=O)NC(c1ccc(OC)cc1)c1ccc2cccnc2c1O (centres undefined) | active: 79.4 µM | 
35 | CC[C@H](C)[C@@H]1NC(=O)c2cc([N+](=O)[O-])cc(I)c2SC[C@@H](C(N)=O)NC(=O)[C@H](CCCCN)NC1=O | inconclusive: 89.1 µM [inhibitor, single point] | 
36 | O=C(C1CC1)N1CCN(c2nc3ccc(F)cc3s2)CC1 |  | inactive: -6.82%
37 | COC(=O)[C@@]12CCCN1[C@H](c1ccc(-c3ccc(Cl)c(Cl)c3)c(OC)c1)[C@H]1C(=O)N(C)C(=O)[C@H]12 | inconclusive: 35.5 µM [inhibitor, partial curve] | 
38 | CCc1cc(C(=O)c2ccccc2OC)c(N)s1 | inconclusive: 50.1 µM [inhibitor, partial curve] | 
39 | Cc1ccc(CCC(=O)Nc2ccc(Cl)cc2)o1 |  | inactive: -10.4%
40 | Cc1nc(C)c(-c2csc(NCc3ccco3)n2)s1 | inconclusive: 63.1 µM [inhibitor, partial curve] | 
41 | COc1cc([N+](=O)[O-])ccc1-c1ccc(/C=N\n2cnnc2)o1 | inconclusive: 56.2 µM [inhibitor, partial curve] | 
42 | COc1ccc(C(CC(=O)c2ccc(C)cc2)Nc2ccc([N+](=O)[O-])cc2)cc1 (centres undefined) | inconclusive: 14.1 µM [inhibitor, full curve, poor fit] | 
43 | N#Cc1c(Sc2ncc(C(F)(F)F)cc2Cl)nsc1C/C=N\OCc1ccccc1Br | inconclusive: 56.2 µM [inhibitor, partial curve] | 
44 | CN(C)CCCN(C(=O)c1ccc2c(c1)OCCO2)c1nc2ccccc2s1 |  | inactive: -24.4%
45 | Cc1ccc(-n2c(N)c(C(=O)Nc3c(C)n(C)n(-c4ccccc4)c3=O)c3nc4ccccc4nc32)cc1 | inconclusive: 79.4 µM [inhibitor, partial curve] | 
46 | Cc1ccc(-n2c(C)cc(/C=N/NC(N)=S)c2C)cc1 | inconclusive: 50.1 µM [inhibitor, partial curve] | 

Row | Structure (SMILES) | Potency | activity change, negative = inhibition
47 | Cc1c(C(=O)OCC(=O)Nc2ccc3c(c2)OCO3)cccc1[N+](=O)[O-] | inconclusive: 50.1 µM [inhibitor, partial curve] | 
48 | COc1ccc(C(CNC(=O)/C=C/c2c(Cl)nc3ccccn23)N(C)C)cc1 (centres undefined) | inconclusive: 89.1 µM [inhibitor, single point] | 
49 | CC(C)CCN1C(=O)c2cccc3c(N)ccc(c23)C1=O |  | inactive: 98.3%
50 | CN(C)C(CNC(=O)c1cccc(S(=O)(=O)N2CCN(c3ccc(F)cc3)CC2)c1)c1ccccc1 (centres undefined) | inconclusive: 14.1 µM [inhibitor, full curve] | 
51 | C=CCN1C(=O)/C(=C/c2ccc(O)c(OC)c2)S/C1=N/c1nccs1 | inconclusive: 44.7 µM [inhibitor, partial curve] | 
52 | CCOCCCNc1nc2c(C)cccn2c(=O)c1/C=C1\SC(=S)N(CC(C)C)C1=O |  | inactive: -10.6%
53 | O=C(Oc1ccc(C(=S)N2CCOCC2)cc1)c1cc([N+](=O)[O-])cc([N+](=O)[O-])c1 |  | inactive: -31.8%
54 | Cc1cc(/C=N/NC(=O)c2ccncc2)c(C)n1-c1cccc(C(F)(F)F)c1 | inconclusive: 70.8 µM [inhibitor, partial curve] | 
55 | COc1ccc(/C(N)=N/OC(=O)CCCN2C(=O)c3ccccc3C2=O)cc1OC | inconclusive: 39.8 µM [inhibitor, single point] | 
56 | Cc1ccccc1OCC(=O)NC(=S)Nc1ccc2c3c(cccc13)CC2 |  | inactive: -29% [at 11.4 µM]
57 | Cc1nn(C(C)C(=O)Nc2sc3c(c2C#N)CCCC3)c(C)c1[N+](=O)[O-] (centres undefined) |  | inactive: -6.98%
58 | COc1cc(CCC(=O)OCC(=O)Nc2ccc(F)c(F)c2)cc(OC)c1OC |  | inactive: -10.7%
59 | Oc1ccc(C=Nc2cccc3ccccc23)c(O)c1 |  | inactive: -35.6%
60 | COc1ccc(N2CCN(C(=O)COC(=O)COc3cc(C)cc(C)c3)CC2)cc1 |  | inactive: -33.1%
61 | N#C/C(=C\c1ccc[nH]1)Sc1nc2ccccc2s1 | inconclusive: 79.4 µM [inhibitor, partial curve] | 
62 | Cc1[nH]n(-c2ccccc2)c(=O)c1N=O |  | inactive: -12%
63 | Cc1cc(C)c2c(CC(=O)O)c(C)[nH]c2c1 |  | inactive: -20.3%
64 | COCCN1C(=O)C(O)=C(C(=O)c2ccco2)C1c1cccc(Oc2ccccc2)c1 (centres undefined) | inconclusive: 39.8 µM [inhibitor, partial curve] | 
65 | O=C(/C=C/c1ccc(-c2ccccc2[N+](=O)[O-])o1)c1ccccc1 | inconclusive: 22.4 µM [inhibitor, partial curve] | 
66 | Fc1ccc(N2CCN(Cc3ccccn3)CC2)cc1 | active: 11.2 µM | 
67 | CCOC(=O)C1CCN(CC(=O)Nc2ccc(OC)c(Cl)c2)CC1 | active: 2.82 µM | 
68 | C#CCOCCOCCOCCNc1nc(N2CCN(C(=O)[C@H](Cc3ccc(O)cc3)n3cc([C@@H](N)C(C)CC)nn3)CC2)nc(N2CCN(C(=O)[C@H](Cc3cc4ccccc4[nH]3)n3cc([C@@H](N)CC(C)C)nn3)CC2)n1 (some centres undefined) | active: 44.7 µM | 
69 | Clc1ccc(OCc2nnc(SCc3nc4ccccc4[nH]3)n2Cc2ccco2)cc1 | inconclusive: 56.2 µM [inhibitor, partial curve] | 
